Test results as given in PubChem BioAssay AID485294 (National Center for Advancing Translational Sciences (NCATS), 2010).
The whole screen tested about 370,000 compounds, of which about 150 (0.041%) were called active. Inconclusive means that the source gave no clear call. Such entries were picked first, then a sample of the others. Calls follow the shape of the dose curve; as a rule, active = well fitted inhibition curve with a large enough effect; inconclusive = small, poorly fitted or top-dose-only effect; inactive = flat fitted curve, though single readings scatter. Potencies of inconclusive entries are left out as doubtful fits.

target: Beta-lactamase (Escherichia coli (strain K12)) (UniProt P00811); assay: qHTS Inhibitors of AmpC Beta-Lactamase (assay with detergent); conditions: AmpC hydrolysis of nitrocefin, absorbance 480 nm, 0.01% Triton; series mostly up to 114 µM; also: nearly all actives have a fitted effect of over 25% in size
Procedure, shortened: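 AmpC (5.3 nM in the dispensed reagent) in 20 mM phosphate pH 7.0 with 0.01% (detergent screen) or 0.0001% Triton X-100 was preincubated with compounds for 15 min at room temperature. Nitrocefin was then added from an 800 uM solution, and hydrolysis was followed at 480 nm.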
Potency is read from the fitted curve at half-maximal effect; tags tell the direction and shape of the fitted curve.

Chain of UniProt P00811 (P00811 whole entry, looked up): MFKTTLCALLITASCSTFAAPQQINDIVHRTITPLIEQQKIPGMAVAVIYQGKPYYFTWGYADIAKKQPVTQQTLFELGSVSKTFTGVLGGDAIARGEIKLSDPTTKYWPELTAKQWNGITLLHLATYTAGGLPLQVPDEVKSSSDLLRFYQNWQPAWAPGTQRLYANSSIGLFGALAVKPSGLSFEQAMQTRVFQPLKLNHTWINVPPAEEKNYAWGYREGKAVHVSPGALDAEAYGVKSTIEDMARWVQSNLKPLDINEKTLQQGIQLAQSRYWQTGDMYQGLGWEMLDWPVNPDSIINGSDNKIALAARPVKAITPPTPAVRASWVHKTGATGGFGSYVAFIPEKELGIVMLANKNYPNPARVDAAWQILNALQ

Row | Compound | Potency
1 | CCc1cccc(CC)c1NC(=S)NCCc1ccc(O)c(O)c1 | inactive
2 | O=C(C1CCC(=O)N(C2CC2)C1)N1CCC(Oc2ccccc2F)CC1 (configuration not stated) | inconclusive [inhibitor, full curve]
3 | CN(C)NC1CC(=O)N(c2ccccc2)C1=O (configuration not stated) | inactive
4 | O=C(Cn1c(NCCCO)nc2ccccc21)c1ccc(F)cc1 | inactive
5 | COC/C=C/C1=CC2=CC(=O)C(C)(OC(=O)c3cnc4ccccc4n3)C(=O)C2=CN1Cc1ccc(OC)cc1 (configuration not stated) | inactive
6 | COc1cccc(-c2nc3cc(C)ccc3o2)c1 | inconclusive [inhibitor, full curve, poor fit]
7 | CCC(C)NC(=O)CSc1nc2cc(S(=O)(=O)N3CCOCC3)ccc2n1CC (configuration not stated) | inconclusive [inhibitor, full curve, poor fit]
8 | CC(Cc1ccccc1)NC(=O)/C=C/C(=O)O (configuration not stated) | inconclusive [inhibitor, full curve, poor fit]
9 | N#Cc1ccccc1S(=O)(=O)N1CCN(C(=O)c2ccc(-n3cncn3)c([N+](=O)[O-])c2)CC1 | inconclusive [inhibitor, full curve, poor fit]
10 | Fc1ccc(OCc2nc(-c3ccc(Br)o3)no2)c(F)c1 | inconclusive [inhibitor, full curve, poor fit]
11 | CCc1nnc(NC(=O)c2ccc(COc3ccccc3C)o2)s1 | inactive
12 | O=C(COC(=O)c1ccc(Br)c(S(=O)(=O)N2CCOCC2)c1)NCC1CCCO1 (configuration not stated) | inconclusive [inhibitor, full curve, poor fit]
13 | Cc1nn(C)c(C)c1S(=O)(=O)N(CC(=O)NCc1cccs1)c1ccc(C(C)C)cc1 | inconclusive [inhibitor, full curve, poor fit]
14 | COc1cc(OC)cc(C(=O)OCC(=O)NCc2ccco2)c1 | inactive
15 | CCOc1cccc(CNCCO)c1OCc1ccc(Cl)cc1 | inconclusive [inhibitor, partial curve]
16 | O=C(CSc1nnc(-c2ccccc2O)o1)N1CCCCC1 | inconclusive [inhibitor, full curve, poor fit]
17 | CN(C)/C=N/c1nc2ccc3c(c2s1)CCCC3 | inconclusive [inhibitor, full curve]
18 | Cc1cccc(C(=O)OCC(=O)NC(=O)NCc2ccccc2)c1 | inconclusive [inhibitor, single point]
19 | CCOc1ccc(C(=O)NNC(=O)CNC(=O)c2ccc(C)s2)cc1OC | inconclusive [inhibitor, full curve, poor fit]
20 | CC(=O)c1ccccc1NC(=O)COC(=O)/C=C/c1cccs1 | inconclusive [inhibitor, full curve]
21 | O=C(/C=C/c1ccccc1)CC(O)(c1ccccc1)C(F)(F)C(F)F (configuration not stated) | inactive
22 | O=C1C(Cl)=C(Nc2ccccc2O)C(=O)N1c1ccccc1 | inconclusive [inhibitor, full curve]
23 | CCc1ccc(C(=O)CSc2n[nH]c(C)n2)cc1 | inconclusive [inhibitor, partial curve, poor fit]

Row | Compound | Potency
24 | Cc1cc(C)c(NC(=O)CNC(=O)COC(=O)C2=COCCO2)c(C)c1 | inconclusive [inhibitor, partial curve, poor fit]
25 | COc1ccc(NC(=O)CSc2nnc(-c3ccccc3)n2N)cc1 | inconclusive [inhibitor, partial curve, poor fit]
26 | Cc1ccc(S(=O)(=O)Cc2ccc(C(=O)N3CCC4(CC3)OCCO4)o2)cc1 | inactive
27 | CC(C)(C)NC(=O)CSCc1c(Cl)cccc1Cl | inconclusive [inhibitor, full curve]
28 | CCc1nnc2c3ccccc3nc(Nc3ccccc3OC)n12 | inactive
29 | Cc1ccc(S(=O)(=O)N2CCN(c3nc4ccccc4nc3-n3nc(C)cc3C)CC2)cc1 | inconclusive [inhibitor, full curve]
30 | CCOC(=O)C1CCN(S(=O)(=O)c2cc(Br)cc3c2N(C(C)=O)C(C)C3)CC1 (configuration not stated) | inconclusive [inhibitor, full curve, poor fit]
31 | Clc1ccccc1OCCCOc1cccc2cccnc12 | inactive
32 | Cc1[nH]c2ccc(-c3nnc(SCC(=O)c4ccc(F)cc4)o3)cc2c1C | inconclusive [inhibitor, full curve, poor fit]
33 | C[C@@H](C(=O)NC1CCN(Cc2ccccc2)CC1)N1C(=O)N2CCc3c([nH]c4ccccc34)[C@@]2(C)C1=O | inconclusive [inhibitor, full curve, poor fit]
34 | Cc1nc(-c2ccccn2)sc1C(=O)Nc1ccc(F)cc1 | inactive
35 | CCN(CC)S(=O)(=O)c1ccc(N2CCCCC2)c(NC(=O)/C=C/c2cc(OC)c(OC)c(OC)c2)c1 | inactive
36 | CCCOc1cccc(C(=O)Nc2ccc(CN3CCOCC3)cc2)c1 | inconclusive [inhibitor, full curve, poor fit]
37 | COc1ccc(-c2noc(N3CCC(C(=O)NCc4ccc(F)cc4)CC3)n2)cc1 | inconclusive [inhibitor, partial curve, poor fit]
38 | CC(C)(C)c1ccc(C(=O)Cn2cnnc2C#N)cc1 | inactive
39 | COC(=O)N1CN(C(=O)OC)CN(C(=O)OC)C1 | inconclusive [inhibitor, partial curve, poor fit]
40 | Cn1c(SCC(=O)NC2CCCCCC2)nnc1-c1ccco1 | inconclusive [inhibitor, full curve, poor fit]
41 | COc1cccc(OCc2cc(C(=O)NCc3ccccn3)no2)c1 | inactive
42 | N=c1oc2c3c4c(cc2cc1C(=O)Nc1ccccc1)CCCN4CCC3 | inactive
43 | COc1ccc(C(=O)NC(=S)Nc2cccc(S(=O)(=O)N3CCOCC3)c2)cc1 | inactive
44 | O=C(O)c1c[nH]c2ccc(S(=O)(=O)N3CCN(c4ccc(F)cc4)CC3)cc2c1=O | inconclusive [inhibitor, full curve, poor fit]
45 | O=C(NCCC(=O)N1CCN(c2ncccn2)CC1)c1ccccc1 | inconclusive [inhibitor, full curve, poor fit]
46 | Cc1cc(NC(=O)c2cnn3c(C(F)F)cc(-c4ccccc4)nc23)no1 | inconclusive [inhibitor, partial curve]

Row | Compound | Potency
47 | CCCCNc1nc2sc3c(c2c(=O)n1-c1cccc(Cl)c1)CCN(C)C3 | inconclusive [inhibitor, full curve, poor fit]
48 | O=C(NN=C1CCCC1)c1cc(Br)ccc1O | inconclusive [inhibitor, partial curve, poor fit]
49 | O=c1c2ccccc2nc2n1C(CSCc1ccc(Cl)cc1Cl)CS2 (configuration not stated) | inconclusive [inhibitor, partial curve, poor fit]
50 | O=S(=O)(NCc1ccc(Cl)cc1Cl)c1cccs1 | inconclusive [inhibitor, full curve]
51 | Cc1ccc(Cl)cc1N1CCN(CCCNc2ncnc3onc(-c4ccc(Cl)cc4)c23)CC1 | inactive
52 | CCn1nc(C)c(CN2CCC(n3nccc3NC(=O)c3ccc4c(c3)OCO4)CC2)c1C | inactive
53 | Cc1cc(NC(=O)COc2ccccc2)ccc1Cl | inactive
54 | COc1ccc(CNC(=O)C(C)OC(=O)c2cccs2)cc1 (configuration not stated) | inconclusive [inhibitor, partial curve, poor fit]
55 | C=CCn1c(CNC(=O)c2ccco2)nnc1SCC(=O)Nc1cccc(Br)c1 | inconclusive [inhibitor, full curve, poor fit]
56 | COc1ccc(/C=C/C(=O)NCC(=O)N2CCC(N(C)CCN3CCOCC3)CC2)cc1OC | inconclusive [inhibitor, partial curve]
57 | CCOC(=O)c1[nH]c(C)c(CN(CCc2ccc(OC)c(OC)c2)C(=O)CCCC(=O)O)c1C | inconclusive [inhibitor, single point]
58 | Cc1ccc(-n2nc3c(c2NC(=O)c2c(-c4ccccc4Cl)noc2C)CSC3)cc1 | inactive
59 | O=C(c1cc(C2CC2)nc2ccc(Br)cc12)N1N=C(C(F)F)CC1(O)C(F)F (configuration not stated) | inactive
60 | COC(=O)c1sc2nc(CN3CCN(c4ccc(OC)cc4)CC3)[nH]c(=O)c2c1C | inconclusive [inhibitor, full curve, poor fit]
61 | CCN(CC(=O)Nc1c(F)cccc1F)C(=O)CCC(=O)c1ccc(C)cc1 | inconclusive [inhibitor, full curve, poor fit]
62 | O=[N+]([O-])c1ccc(CN2CCN(c3ccc(Cl)cc3)CC2)o1 | inconclusive [inhibitor, partial curve]
63 | OCCNCc1cc(Br)ccc1OCc1ccccc1 | inconclusive [inhibitor, partial curve, poor fit]
64 | COC(=O)c1cc(S(=O)(=O)Nc2ccc(C)cn2)c[nH]1 | inconclusive [inhibitor, full curve]
65 | COc1ccc(CC(=O)O/N=C(\N)Cc2ccc(OC)c(OC)c2)cc1 | inconclusive [inhibitor, partial curve, poor fit]
66 | CCn1cc(C(=O)NCCc2ccccc2)c(=O)c2cc(S(=O)(=O)N(C)C)ccc21 | inactive
67 | CC(=O)OCCCN1C(=O)c2cccc3cc(Br)cc(c23)C1=O | inconclusive [inhibitor, full curve, poor fit]
